# Test results published in article doi:10.1101/2021.04.11.439330 (bioRxiv, 2021).
# B1: EphA4 receptor (receptor)
# chain: not shown
# Biological target: the molecule itself
# Test: PIE-FCCS
protein,measurement,value
B1,stoichiometry N,2
